Assay [1] deals with MAP/microtubule affinity-regulating kinase 3 (Homo sapiens) (UniProt P27448). The note with it: at 1 µM.
Assay [2] concerns the target T1, MAP/microtubule affinity-regulating kinase 4 (Homo sapiens) (UniProt Q96L34).
T1 sequence (whole entry): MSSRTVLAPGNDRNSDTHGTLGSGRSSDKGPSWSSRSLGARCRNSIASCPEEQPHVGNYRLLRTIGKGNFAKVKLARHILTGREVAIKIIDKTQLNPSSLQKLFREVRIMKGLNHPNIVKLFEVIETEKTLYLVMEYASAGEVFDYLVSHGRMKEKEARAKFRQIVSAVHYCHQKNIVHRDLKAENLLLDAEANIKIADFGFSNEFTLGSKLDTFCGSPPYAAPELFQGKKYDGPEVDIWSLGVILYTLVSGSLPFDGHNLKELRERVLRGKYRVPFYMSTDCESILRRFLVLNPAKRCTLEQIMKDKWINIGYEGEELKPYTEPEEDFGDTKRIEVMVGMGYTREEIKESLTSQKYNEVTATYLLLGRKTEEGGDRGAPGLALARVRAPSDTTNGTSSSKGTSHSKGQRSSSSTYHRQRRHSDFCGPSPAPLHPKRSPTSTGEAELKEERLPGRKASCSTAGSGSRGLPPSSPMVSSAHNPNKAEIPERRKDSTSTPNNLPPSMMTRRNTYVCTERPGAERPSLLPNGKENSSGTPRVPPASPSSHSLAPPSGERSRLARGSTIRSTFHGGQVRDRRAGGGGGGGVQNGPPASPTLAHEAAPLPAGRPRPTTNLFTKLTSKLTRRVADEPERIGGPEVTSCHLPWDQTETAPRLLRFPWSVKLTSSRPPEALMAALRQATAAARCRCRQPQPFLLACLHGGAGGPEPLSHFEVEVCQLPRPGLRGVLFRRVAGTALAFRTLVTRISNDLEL
To be noted: at 0.1 µM.

Assay [3] deals with T1, MAP/microtubule affinity-regulating kinase 4 (Homo sapiens). The note with it: at 1 µM.
The target in assay [4] is Maternal embryonic leucine zipper kinase (Homo sapiens) (UniProt Q14680). The note with it: at 0.1 µM.
For assay [5] the target is unchanged. To be noted: at 1 µM.
The target of assay [6] is MAP kinase-interacting serine/threonine-protein kinase 1 (Homo sapiens) (UniProt Q9BUB5). The note with it: at 0.1 µM.
Assay [7] shares this target. To be noted: at 1 µM.
The target of assay [8] is MAP kinase-interacting serine/threonine-protein kinase 2 (Homo sapiens) (UniProt Q9HBH9). To be noted: at 1 µM.
In assay [9] the target is T2, Serine/threonine-protein kinase MARK2 (Homo sapiens) (UniProt Q7KZI7).
T2 sequence (whole entry): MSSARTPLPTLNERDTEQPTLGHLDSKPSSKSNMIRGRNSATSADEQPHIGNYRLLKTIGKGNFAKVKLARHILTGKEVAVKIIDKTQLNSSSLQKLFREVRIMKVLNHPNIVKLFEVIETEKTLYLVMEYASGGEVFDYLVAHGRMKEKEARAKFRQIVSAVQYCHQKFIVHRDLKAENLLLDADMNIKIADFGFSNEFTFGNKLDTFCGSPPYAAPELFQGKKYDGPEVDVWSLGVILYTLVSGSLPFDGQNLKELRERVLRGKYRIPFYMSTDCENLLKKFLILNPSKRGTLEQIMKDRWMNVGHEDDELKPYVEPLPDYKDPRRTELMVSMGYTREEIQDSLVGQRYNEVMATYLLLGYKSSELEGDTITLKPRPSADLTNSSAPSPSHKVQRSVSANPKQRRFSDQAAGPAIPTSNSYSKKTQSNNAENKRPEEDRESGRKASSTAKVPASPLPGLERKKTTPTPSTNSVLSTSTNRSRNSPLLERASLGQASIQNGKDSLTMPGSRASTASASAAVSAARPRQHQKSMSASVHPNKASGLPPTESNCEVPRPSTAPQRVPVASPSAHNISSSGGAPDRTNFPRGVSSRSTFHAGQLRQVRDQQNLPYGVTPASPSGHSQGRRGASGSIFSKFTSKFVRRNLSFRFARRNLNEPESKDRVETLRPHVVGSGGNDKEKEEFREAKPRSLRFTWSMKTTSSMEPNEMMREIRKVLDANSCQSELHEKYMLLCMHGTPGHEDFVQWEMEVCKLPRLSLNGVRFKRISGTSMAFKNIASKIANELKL
The note with it: at 0.1 µM.

Assay [10] addresses T2, Serine/threonine-protein kinase MARK2 (Homo sapiens). To be noted: at 1 µM.
The target of assay [11] is PAS domain-containing serine/threonine-protein kinase (Homo sapiens) (UniProt Q96RG2). The note with it: at 0.1 µM.
Assay [12] shares this target. The note with it: at 1 µM.
Assay [13] concerns the target Phosphorylase b kinase gamma catalytic chain, skeletal muscle/heart isoform (Homo sapiens) (UniProt Q16816). The note with it: at 0.1 µM.
For assay [14] the target is unchanged. To be noted: at 1 µM.
In assay [15] the target is T3, Phosphorylase b kinase gamma catalytic chain, liver/testis isoform (Homo sapiens) (UniProt P15735).
T3 sequence (whole entry): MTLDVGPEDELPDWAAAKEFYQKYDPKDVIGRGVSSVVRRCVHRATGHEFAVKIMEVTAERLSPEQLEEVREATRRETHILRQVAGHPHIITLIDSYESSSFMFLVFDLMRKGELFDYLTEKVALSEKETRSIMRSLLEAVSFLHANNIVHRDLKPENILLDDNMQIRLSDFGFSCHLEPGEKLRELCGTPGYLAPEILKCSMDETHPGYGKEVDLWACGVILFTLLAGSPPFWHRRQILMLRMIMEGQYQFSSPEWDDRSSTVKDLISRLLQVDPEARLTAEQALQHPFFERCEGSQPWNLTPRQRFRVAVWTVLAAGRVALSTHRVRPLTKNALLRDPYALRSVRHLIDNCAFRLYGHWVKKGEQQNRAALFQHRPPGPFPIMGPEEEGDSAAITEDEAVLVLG
To be noted: at 0.1 µM.

Assay [16] concerns the target T3, Phosphorylase b kinase gamma catalytic chain, liver/testis isoform (Homo sapiens). To be noted: at 1 µM.
Assay [17] deals with Serine/threonine-protein kinase pim-1 (Homo sapiens) (UniProt P11309). To be noted: at 0.1 µM.
The target is the same in assay [18]. To be noted: at 1 µM.
The target in assay [19] is Serine/threonine-protein kinase pim-2 (Homo sapiens) (UniProt Q9P1W9). To be noted: at 0.1 µM.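 Further: reported value is the mean percent inhibition of PIM2, measured in the GSK PKIS kinase inhibitor set screen.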
Assay [20] addresses MAP kinase-interacting serine/threonine-protein kinase 2 (Homo sapiens) (UniProt Q9HBH9). To be noted: at 0.1 µM.

For some of these results: This list holds what a sample rich in strong results left over. Only a part is listed here, and it is no random draw.

Sequence of UniProt P27448 (P27448 whole entry, looked up): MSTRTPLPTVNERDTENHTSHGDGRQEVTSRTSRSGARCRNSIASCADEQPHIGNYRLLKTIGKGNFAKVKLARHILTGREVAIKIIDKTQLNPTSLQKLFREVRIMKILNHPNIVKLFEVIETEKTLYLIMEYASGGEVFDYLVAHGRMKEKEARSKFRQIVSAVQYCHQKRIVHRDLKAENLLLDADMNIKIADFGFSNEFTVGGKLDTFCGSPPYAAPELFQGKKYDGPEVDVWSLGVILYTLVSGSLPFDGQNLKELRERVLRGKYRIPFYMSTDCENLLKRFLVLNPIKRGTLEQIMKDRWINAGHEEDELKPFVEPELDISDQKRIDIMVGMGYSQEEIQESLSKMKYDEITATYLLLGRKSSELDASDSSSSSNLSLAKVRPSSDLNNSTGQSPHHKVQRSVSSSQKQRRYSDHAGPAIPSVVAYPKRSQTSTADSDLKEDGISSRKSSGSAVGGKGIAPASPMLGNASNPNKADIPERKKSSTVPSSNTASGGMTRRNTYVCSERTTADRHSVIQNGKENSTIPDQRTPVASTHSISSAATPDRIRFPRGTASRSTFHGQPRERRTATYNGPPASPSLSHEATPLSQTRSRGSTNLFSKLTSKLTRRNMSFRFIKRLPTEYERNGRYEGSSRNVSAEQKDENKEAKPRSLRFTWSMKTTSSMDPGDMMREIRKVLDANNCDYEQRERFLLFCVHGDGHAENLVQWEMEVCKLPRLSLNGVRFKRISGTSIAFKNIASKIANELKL
Sequence of UniProt P11309 (P11309 whole entry, looked up): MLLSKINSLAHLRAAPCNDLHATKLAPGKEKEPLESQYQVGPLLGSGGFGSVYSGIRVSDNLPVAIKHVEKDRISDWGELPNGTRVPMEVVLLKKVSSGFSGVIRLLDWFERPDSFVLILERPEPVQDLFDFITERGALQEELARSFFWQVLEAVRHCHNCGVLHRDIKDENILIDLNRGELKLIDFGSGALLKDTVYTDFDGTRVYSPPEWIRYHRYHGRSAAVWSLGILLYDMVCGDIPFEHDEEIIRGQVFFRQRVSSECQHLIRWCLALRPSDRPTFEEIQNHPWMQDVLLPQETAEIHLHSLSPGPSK
Sequence of UniProt Q96RG2 (Q96RG2 whole entry, the tested form may be a part): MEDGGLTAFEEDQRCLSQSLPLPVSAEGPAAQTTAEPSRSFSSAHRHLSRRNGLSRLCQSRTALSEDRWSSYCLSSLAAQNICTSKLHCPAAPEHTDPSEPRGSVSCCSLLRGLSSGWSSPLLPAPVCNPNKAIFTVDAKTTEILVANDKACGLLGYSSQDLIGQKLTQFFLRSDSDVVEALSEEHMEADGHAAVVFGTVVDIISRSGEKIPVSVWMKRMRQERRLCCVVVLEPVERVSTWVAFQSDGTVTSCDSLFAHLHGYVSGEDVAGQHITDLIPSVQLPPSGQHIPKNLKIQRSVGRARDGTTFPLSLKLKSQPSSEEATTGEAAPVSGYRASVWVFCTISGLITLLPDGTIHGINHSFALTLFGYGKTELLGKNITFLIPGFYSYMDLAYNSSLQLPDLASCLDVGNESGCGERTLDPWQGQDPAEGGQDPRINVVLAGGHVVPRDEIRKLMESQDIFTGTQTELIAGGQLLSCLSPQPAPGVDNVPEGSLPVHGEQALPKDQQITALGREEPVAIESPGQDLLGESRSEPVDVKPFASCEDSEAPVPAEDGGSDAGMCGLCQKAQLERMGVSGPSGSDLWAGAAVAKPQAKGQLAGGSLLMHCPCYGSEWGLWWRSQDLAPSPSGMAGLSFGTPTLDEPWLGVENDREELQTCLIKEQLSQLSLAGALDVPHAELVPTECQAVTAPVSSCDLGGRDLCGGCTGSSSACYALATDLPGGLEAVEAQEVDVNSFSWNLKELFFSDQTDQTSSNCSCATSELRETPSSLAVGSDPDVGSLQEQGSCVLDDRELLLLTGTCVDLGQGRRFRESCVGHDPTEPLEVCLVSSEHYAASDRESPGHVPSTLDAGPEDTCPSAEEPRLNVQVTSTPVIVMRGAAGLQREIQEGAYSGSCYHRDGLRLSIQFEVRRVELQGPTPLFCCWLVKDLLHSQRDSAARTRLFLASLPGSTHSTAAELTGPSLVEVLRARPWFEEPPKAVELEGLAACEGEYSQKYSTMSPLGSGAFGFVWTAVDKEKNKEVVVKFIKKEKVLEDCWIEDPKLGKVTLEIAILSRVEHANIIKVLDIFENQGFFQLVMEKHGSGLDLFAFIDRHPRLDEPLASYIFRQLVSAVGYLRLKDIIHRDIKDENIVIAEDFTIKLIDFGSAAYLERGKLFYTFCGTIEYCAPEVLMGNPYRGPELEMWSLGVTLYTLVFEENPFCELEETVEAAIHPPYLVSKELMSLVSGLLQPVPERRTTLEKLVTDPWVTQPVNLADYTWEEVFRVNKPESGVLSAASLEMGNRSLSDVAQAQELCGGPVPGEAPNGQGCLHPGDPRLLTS
Sequence of UniProt Q14680 (Q14680 whole entry, looked up): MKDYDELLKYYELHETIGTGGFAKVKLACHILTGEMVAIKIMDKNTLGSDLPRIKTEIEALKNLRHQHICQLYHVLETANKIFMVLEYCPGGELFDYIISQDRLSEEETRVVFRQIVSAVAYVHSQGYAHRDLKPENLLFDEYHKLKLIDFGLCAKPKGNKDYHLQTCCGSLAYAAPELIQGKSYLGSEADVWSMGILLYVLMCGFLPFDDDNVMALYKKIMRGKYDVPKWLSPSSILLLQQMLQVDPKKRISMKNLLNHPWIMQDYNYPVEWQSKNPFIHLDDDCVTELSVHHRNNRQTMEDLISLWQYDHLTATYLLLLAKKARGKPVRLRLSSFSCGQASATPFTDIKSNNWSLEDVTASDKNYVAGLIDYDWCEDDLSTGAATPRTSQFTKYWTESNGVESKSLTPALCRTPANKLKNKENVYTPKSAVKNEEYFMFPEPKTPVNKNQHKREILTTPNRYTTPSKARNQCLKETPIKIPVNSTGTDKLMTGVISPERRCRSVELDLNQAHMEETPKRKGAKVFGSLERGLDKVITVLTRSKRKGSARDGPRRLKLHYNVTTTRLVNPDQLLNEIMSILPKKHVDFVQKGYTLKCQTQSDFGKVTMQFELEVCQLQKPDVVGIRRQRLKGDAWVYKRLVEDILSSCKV
Sequence of UniProt Q9BUB5 (Q9BUB5 whole entry, looked up): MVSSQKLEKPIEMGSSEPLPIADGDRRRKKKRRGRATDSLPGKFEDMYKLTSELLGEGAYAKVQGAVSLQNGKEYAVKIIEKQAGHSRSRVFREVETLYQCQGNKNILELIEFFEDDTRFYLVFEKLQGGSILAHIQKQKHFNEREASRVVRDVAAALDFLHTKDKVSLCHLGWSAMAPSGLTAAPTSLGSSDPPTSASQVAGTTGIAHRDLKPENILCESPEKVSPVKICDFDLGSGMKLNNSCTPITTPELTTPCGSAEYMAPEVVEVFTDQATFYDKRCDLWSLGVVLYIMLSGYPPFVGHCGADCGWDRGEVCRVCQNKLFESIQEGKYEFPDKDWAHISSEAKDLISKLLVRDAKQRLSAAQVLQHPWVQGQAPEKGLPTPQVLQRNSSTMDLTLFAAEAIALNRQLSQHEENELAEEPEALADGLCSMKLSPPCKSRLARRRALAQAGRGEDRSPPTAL
Sequence of UniProt Q16816 (Q16816 whole entry, looked up, canonical isoform): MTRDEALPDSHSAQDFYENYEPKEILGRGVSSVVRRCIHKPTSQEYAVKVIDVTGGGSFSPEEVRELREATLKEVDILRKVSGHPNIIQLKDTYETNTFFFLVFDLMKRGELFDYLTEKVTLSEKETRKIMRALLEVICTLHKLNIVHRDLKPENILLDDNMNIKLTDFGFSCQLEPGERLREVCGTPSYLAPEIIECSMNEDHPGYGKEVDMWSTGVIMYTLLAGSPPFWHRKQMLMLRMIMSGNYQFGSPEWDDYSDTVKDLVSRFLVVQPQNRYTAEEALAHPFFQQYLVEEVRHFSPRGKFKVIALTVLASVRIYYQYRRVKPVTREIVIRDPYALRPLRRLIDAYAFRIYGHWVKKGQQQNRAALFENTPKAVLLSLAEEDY
Sequence of UniProt Q9P1W9 (Q9P1W9 whole entry, looked up): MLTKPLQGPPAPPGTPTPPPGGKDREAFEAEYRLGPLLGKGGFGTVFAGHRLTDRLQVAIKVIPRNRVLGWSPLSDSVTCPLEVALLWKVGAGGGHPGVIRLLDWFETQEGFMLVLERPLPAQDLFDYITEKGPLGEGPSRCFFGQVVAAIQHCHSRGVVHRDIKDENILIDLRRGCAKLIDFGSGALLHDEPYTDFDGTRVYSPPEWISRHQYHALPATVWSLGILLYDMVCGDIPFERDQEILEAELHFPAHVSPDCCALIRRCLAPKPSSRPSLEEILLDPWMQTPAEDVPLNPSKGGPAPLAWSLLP
Sequence of UniProt Q9HBH9 (Q9HBH9 whole entry, looked up): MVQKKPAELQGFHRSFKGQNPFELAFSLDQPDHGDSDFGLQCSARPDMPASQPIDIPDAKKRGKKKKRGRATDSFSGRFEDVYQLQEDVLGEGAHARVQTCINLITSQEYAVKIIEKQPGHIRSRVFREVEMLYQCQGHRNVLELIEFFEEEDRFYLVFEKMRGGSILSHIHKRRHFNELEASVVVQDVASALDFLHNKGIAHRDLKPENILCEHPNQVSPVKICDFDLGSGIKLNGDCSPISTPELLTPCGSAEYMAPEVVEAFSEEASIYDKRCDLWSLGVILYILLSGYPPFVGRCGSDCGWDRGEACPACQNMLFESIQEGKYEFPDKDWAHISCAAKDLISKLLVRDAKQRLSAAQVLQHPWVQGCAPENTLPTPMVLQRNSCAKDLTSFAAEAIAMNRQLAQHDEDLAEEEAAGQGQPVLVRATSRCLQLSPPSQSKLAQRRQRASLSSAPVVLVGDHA

As to `COc1ccccc1Oc1nccc(-c2c(-c3ccc(F)cc3)ncn2C2CCNCC2)n1`, the inhibition (in general, the drop in the measured response relative to a control, in per cent) in assay [1] stood at 8.11%; in [2], 3.03%; in assay [3] it was 6.36%; in [4], 6.61%; in [5] it was 7.7%; in [6] it was 3.93%. Also, the inhibition was determined as 6.48% in [7]; 3.83% in assay [8]; 1.73% in assay [9]; 4.49% in assay [10]; 0.89% in [11]; 0.84% in assay [12]. Also, the inhibition in assay [13] was 6.35%; in assay [14] it was 10.1%; in assay [15], 4.53%; in assay [16], 5.85%; in assay [17], 0.49%; in [18], 1.74%. In addition, the inhibition in assay [19] turned out to be 0.39%.

Regarding `CC(C)(C)c1ccc(Oc2nccc(-c3c(-c4ccc(F)cc4)ncn3C3CCNCC3)n2)cc1`, the inhibition turned out to be 0.9% in assay [1]; 1.46% in assay [2]; 3.82% in assay [3]; 2.02% in assay [4]; 10% in assay [5]; 2.19% in assay [6]. Besides, the inhibition in assay [7] is 3.63%; in assay [20], 0.17%; in [8] it was 1.27%; in assay [9], -3%; in assay [10], 0.66%; in assay [11], 0.2%. Besides, the inhibition in [12] was 0.03%; in [13], 4.06%; in assay [14], 7.23%; in assay [15], 3.19%; in assay [16], 3.37%; in [17] it was 0.98%. For the same compound, the inhibition in assay [18] was found to be 2.2%; in assay [19], 0.14%.

For the compound `Cc1cccc(Oc2nccc(-c3c(-c4ccc(F)cc4)ncn3C3CCNCC3)n2)c1C`, the inhibition in assay [1] turned out to be 5.13%; in assay [2], 2.67%; in [3], 4.11%; in [4], 5.07%; in [5] it was 4.62%; in [6], 1.17%. Also, the inhibition in assay [7] is 1.26%; in [20], -1.52%; in [8], -1.94%; in [9], 1.21%; in [10], 3.51%; in [11] it was 0.32%. The inhibition is 0.29% in assay [12]; 6.63% in assay [13]; 7.78% in assay [14]; 5.29% in [15]; 5.11% in [16]; -0.71% in assay [17]. The inhibition in assay [18] was 1.66%; in [19] it was -0.07%.

As to `Fc1ccc(Oc2nccc(-c3c(-c4ccc(F)cc4)ncn3C3CCNCC3)n2)cc1`, the inhibition was 2.38% in assay [1]; 2.08% in assay [2]; 1.09% in assay [3]; 7.41% in assay [4]; 11.7% in assay [5]; 1.88% in assay [6]. For the same compound, the inhibition in assay [7] was 1.54%; in assay [20], 2.38%; in assay [8] it was 2.64%; in assay [9], 1.92%; in assay [10], 1.71%; in assay [11] it was -2.4%. For the same compound, the inhibition in assay [12] was -1.41%; in [13] it was 1.33%; in assay [14], 3.72%; in assay [15], 5.4%; in assay [16], 5.05%; in assay [17] it was -0.75%. Moreover, the inhibition in assay [18] was -0.29%; in assay [19], -4.34%.

In the case of `NC(=O)CCc1ccccc1Oc1nccc(-c2c(-c3ccc(F)cc3)ncn2C2CCNCC2)n1`, the inhibition in assay [1] is -0.22%; in assay [2], 1.7%; in [3], 1.06%; in [4], -0.36%; in assay [5], 1.03%; in assay [6], -0.54%. Moreover, the inhibition in assay [7] is -1.06%; in assay [20] it was -1.56%; in [8], -1.03%; in assay [9] it was 0.46%; in assay [10] it was 1.87%; in [11], 0.54%. Also, the inhibition in assay [12] is -0.3%; in [13] it was 1.98%; in assay [14], 4.11%; in [15], -2.36%; in [16], -4.51%; in assay [17] it was -0.02%. In addition, the inhibition in [18] is 1.75%; in assay [19], -0.27%.

For `COc1ccccc1C1=C(Nc2ccccc2)C(=O)NC1=O`, the inhibition in [1] was 28.3%; in assay [2], 2.24%; in assay [3], 13.2%; in [4], 3.75%; in [5], 2.36%; in assay [6] it was 2.43%. In addition, the inhibition was 8.76% in [7]; 1.34% in [20]; 5.14% in assay [8]; -0.33% in assay [9]; 13.3% in [10]; 0.75% in assay [11]. Moreover, the inhibition in assay [12] is 0.53%; in assay [13], 2.69%; in [14], 8.01%; in assay [15], 5.15%; in assay [16] it was 4.8%; in assay [17] it was 0.56%. Moreover, the results for the inhibition in assay [18] and in assay [19] were 1.26% and -0.65%, respectively.

For `O=C1NC(=O)C(c2ccccc2)=C1Nc1ccccc1`, the inhibition in assay [1] was 10.4%; in [2] it was 4.04%; in assay [3] it was 4.27%; in [4], 4.35%; in assay [5] it was 6.7%; in assay [6], 7.14%. For the same compound, the inhibition is 17.3% in [7]; 2.31% in assay [20]; 8.75% in assay [8]; 0.17% in assay [9]; 3.58% in [10]; 0.23% in [11]. Also, the inhibition in assay [12] stood at 1.08%; in [13], 5.83%; in [14], 7.96%; in assay [15], 6.24%; in assay [16], 7.75%; in assay [17], 1.66%. For the same compound, the inhibition amounted to 3.1% in assay [18] and 3.49% in [19].

The values above are taken from ChEMBL document CHEMBL1961873, “Compounds: GSK PKIS; Assays: Nanosyn kinase panel” (2012).
